Measurements taken from article PMC4336329 (PLoS ONE, 2015).
In all, about 310,000 compounds went through this assay and about 14,000 (4.5%) showed an effect of 50% or more. Effects have a minus sign here. Some of the results follow.

target: human ether-à-go-go-related gene (hERG) potassium channel (human, UniProt Q12809); assay: primary screen, population patch clamp on CHO cells stably expressing hERG
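Note: peak tail current of the secondary pulse compared with the same well before compound.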

human ether-à-go-go-related gene (hERG) potassium channel, sequence (Q12809 whole entry, looked up): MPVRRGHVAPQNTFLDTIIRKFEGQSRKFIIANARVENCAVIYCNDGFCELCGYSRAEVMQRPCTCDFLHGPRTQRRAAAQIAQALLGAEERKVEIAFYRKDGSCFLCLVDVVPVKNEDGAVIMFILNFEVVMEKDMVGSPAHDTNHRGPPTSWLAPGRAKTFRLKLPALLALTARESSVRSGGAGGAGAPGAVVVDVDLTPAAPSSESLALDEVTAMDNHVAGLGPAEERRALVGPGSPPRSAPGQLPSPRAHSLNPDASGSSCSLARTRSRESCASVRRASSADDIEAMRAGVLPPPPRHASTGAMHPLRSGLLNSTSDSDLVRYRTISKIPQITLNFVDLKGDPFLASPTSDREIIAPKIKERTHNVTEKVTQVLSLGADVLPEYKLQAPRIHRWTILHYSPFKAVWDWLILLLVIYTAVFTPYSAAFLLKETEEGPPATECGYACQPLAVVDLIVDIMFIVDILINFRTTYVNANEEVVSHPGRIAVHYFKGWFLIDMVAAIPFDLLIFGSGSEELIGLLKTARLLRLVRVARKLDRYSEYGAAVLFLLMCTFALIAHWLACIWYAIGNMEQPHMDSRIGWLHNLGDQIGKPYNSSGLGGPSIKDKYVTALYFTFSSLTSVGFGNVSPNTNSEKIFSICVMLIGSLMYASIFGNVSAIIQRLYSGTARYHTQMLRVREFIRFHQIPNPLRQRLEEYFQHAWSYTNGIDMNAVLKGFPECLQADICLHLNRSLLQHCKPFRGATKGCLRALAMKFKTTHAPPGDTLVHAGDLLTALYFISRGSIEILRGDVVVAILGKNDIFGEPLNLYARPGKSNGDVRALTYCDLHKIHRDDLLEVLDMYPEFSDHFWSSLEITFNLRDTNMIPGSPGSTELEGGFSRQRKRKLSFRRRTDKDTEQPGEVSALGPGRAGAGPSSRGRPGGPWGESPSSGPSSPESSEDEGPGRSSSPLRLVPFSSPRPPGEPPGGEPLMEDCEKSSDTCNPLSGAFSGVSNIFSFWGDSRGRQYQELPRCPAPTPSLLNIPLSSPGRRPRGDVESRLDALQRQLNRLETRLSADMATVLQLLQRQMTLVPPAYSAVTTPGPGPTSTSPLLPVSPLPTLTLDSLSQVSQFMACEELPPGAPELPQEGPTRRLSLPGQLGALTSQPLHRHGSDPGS

Row | Compound | hERG current change (%, negative = inhibition) at 10uM [%]
1 | COc1cc(C)ccc1OCc1cc(C(=O)N(Cc2c(C)nn(C)c2C)C2CC2)no1 | -16.8
2 | O=S(=O)(Cc1ccc(Cl)cc1)CC(O)COCc1ccccc1 (stereo not shown) | 9.12
3 | COc1ccc(C)cc1NC(=O)C1CCN(S(=O)(=O)c2cccc3nonc23)CC1 | 11.1
4 | CCCCCn1c(=O)[nH]c2cc(C(=O)N3CCN(C(=O)OCC)CC3)ccc2c1=O | -9.61
5 | CCOc1ccc(CNC(=O)C2Cc3cc(S(=O)(=O)N4CCCC4)ccc3N2C(C)=O)cc1 (stereo not shown) | -18.4
6 | COc1ccc2[nH]c(=O)c(CN(c3ccccc3OC)S(=O)(=O)c3ccccc3)cc2c1 | 0.00668
7 | CCN1CCCC1CNC(=O)c1cc(S(=O)(=O)CC)c(N)cc1OC (stereo not shown) | -5.06
8 | Cc1ccc(S(=O)(=O)c2nc(-c3ccco3)oc2NCC2CCCO2)cc1 (stereo not shown) | -2.87
9 | Nc1nccnc1C(=O)OCC(=O)NC1CCCc2ccccc21 (stereo not shown) | 20.9
10 | O=C1NCCN(Cc2ccc(F)cc2)C1CC(=O)N1CC=C(c2ccccc2)CC1 (stereo not shown) | 19.5
11 | Cc1onc(-c2c(Cl)cccc2Cl)c1C(=O)N1CCc2ccccc21 | -19.9
12 | O=S(=O)(Nc1cccc2cccnc12)c1ccc(S(=O)(=O)N2CCCC2)cc1 | -11
13 | COc1ccc(/C=N/Nc2nnc(-c3ccccc3)c(=O)[nH]2)cc1 | 11.9
14 | CN(CC(=O)Nc1ccc(Cl)cc1)C1CCCCC1 | -10
15 | Cl.N=c1sccn1CC(=O)NC(c1ccccc1)c1ccccc1 | -63.3
16 | Cc1cccc(C(=O)Nc2ccnc(-c3cccnc3)n2)c1 | -7.39
17 | CCCNC(=O)Nc1ccc(C)cc1C | 21.2
18 | Cl.O=C(OCC1CCNCC1)c1ccc2c(c1)OCO2 | 13.9
19 | Cc1ccc(S(=O)(=O)N2CCC(C(=O)NNC(=O)c3ccccc3)CC2)cc1 | 18.9
20 | CC(C)c1cc(NC(=O)CCl)on1 | 27.9
21 | Cc1ccc(NC(=O)C2CCN(C(=O)c3cccs3)CC2)cc1 | -3.2
22 | Cc1ccc(-c2nnc(CSc3nncn3N)o2)cc1 | 3.64
23 | Cc1ccc(C)c(NC(=S)N2CCCC2)c1 | 10.4
24 | CSc1ncccc1C(=O)OCC(=O)N(CC(C)C)C1CCS(=O)(=O)C1 (stereo not shown) | -0.0479
25 | Cn1c(=O)c2c3c(sc2n2cnnc12)CCC3 | 6.78
